# Assay results taken from PMC12136788.
# Numbering of substitutions follows the chain as printed. The list shows a part of the results.
# T1: UNK ZnF1-3 (human, UniProt Q9C0B0 31-174)
# T1 sequence: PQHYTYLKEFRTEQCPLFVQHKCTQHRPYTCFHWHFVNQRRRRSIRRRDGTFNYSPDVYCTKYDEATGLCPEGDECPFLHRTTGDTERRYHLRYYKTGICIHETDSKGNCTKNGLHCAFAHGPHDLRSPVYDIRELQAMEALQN
# B1: chr5:21408736:21408737:-_ENSMUSG00000042453_ENSMUST00000161356|mus_hu|mus_mus_mus_hu_False|28_98 (ssRNA)
# RNA: GGGAGUUCUACAGUCCGACGAUCGUUGACAGAGUUGUAAAUGGUGGCUUCAUGGAACUGGAAAGGGGAGCAGCCAAUGCUGUUAGAAGAGGAAGGAAGGCACUGGGUCUGCACGAGCUGCCAGGAAUCCGAUCUUGCAUCCUUCAACAGAGGAUUGAGCAUCA
# B2: chr2:48034705:48034706:-_ENSG00000138081_ENST00000403359|hu_mus|motif|central (ssRNA)
# RNA: GGGAGUUCUACAGUCCGACGAUCCAUAGAAAGAAGGUACAUACUGGGACAUGAGUACAGUUACAGCAAGUCUAGGUGUGCGGACAAAACAGGGCACAUUCAAGUACAAUAAGAUUUGCUUGAAAUUAAAAACGAACUACAUGACAACAGAGGAUUGAGCAUCA
# B3: 168328940_168329060_1778_3pUTR_ENSMUSG00000040596_ENSMUST00000169324|mouse|control|control (ssRNA)
# RNA: GGGAGUUCUACAGUCCGACGAUCUGUGGCACUUUCUGAACCCCUGGACAAUUGAUUCACUUGAGAUGCUGUUCCAUGCAACCAUGAUCCACUCCAGGAAGAGGCCCAGGGGGGGCUUCUUAGCAUUUCCAGUGGGGCUGAGUGCAACAGAGGAUUGAGCAUCA
# B4: chr3:179287964:179287965:+_ENSG00000136518_ENST00000429709|hu_hu|hu_hu_hu_mus_True|78_108 (ssRNA)
# RNA: GGGAGUUCUACAGUCCGACGAUCCUUUAGAGGUGAAAUGGCCUCCAUGUUCUCCCUCGGAACACGCAGGGCAUUGGUGUCUAUGUAGUAGGUGGGCCCGCCCUGCUUGCCUUUGUCACCAUCAAUCUCCAUCAUUGUACUUCCCAACAGAGGAUUGAGCAUCA
# B5: chr2:42509997:42509998:+_ENSG00000143924_ENST00000318522|hu_mus|hu_hu_hu_mus_True|1_1 (ssRNA)
# RNA: GGGAGUUCUACAGUCCGACGAUCUCGCUGAGUCCUCUCCUCAUAAUUAAACAGGACUACCACUGAGGCGAUAAAAUAAACUAUCUCCCCUGUGGGAAGCAGGUAUACAUUCGCUCUACAGUCCUUUCCUCGAUAACCAUAUGCCAACAGAGGAUUGAGCAUCA
# B6: chr21:34924380:34924381:+_ENSG00000159140_ENST00000381679|hu_hu|FALSE|FALSE (ssRNA)
# RNA: GGGAGUUCUACAGUCCGACGAUCUCUAGGUGACAUCCUAUAGGGAUCAGGAGUUAGUCUGUAGGGAUCAUGGCCUAAUCUAUAAGGGUCUUGUCCUAACCUGUAAGCAUCAUGACCUAAUCUAUAGGGGUCAUGGCCCAACCUCAACAGAGGAUUGAGCAUCA
# B7: 65694603_65694723_2569_CDS_ENSMUSG00000021978_ENSMUST00000022550|mouse|control|control (ssRNA)
# RNA: GGGAGUUCUACAGUCCGACGAUCUCCGAGCGCUGCCUGGAACUCCUUGCCAGAGCCCCCAGCCCCGCCACCGAUGGGCCGAAAUCCAGUCCCUGAGCCCAGGAAUUUGGCCUCAGAGGGCAACACAGGAUCAAAGGGUGUGUGCAACAGAGGAUUGAGCAUCA
# B8: chr3:176767854:176767855:-_ENSG00000177565_ENST00000430069|hu_hu|hu_hu_hu_mus_False|68_108 (ssRNA)
# RNA: GGGAGUUCUACAGUCCGACGAUCGACAUCCUUGUUGCUGGGCACGUCCUGCCCUCCUUCCCGUAUGCAAUGUCUAAGCACGAGCUGCGUAGGGCCACUCGUGCUGUUCUCACUGAGGUUCCAGAUUCUUGCCGUGGAGUCUCCCAACAGAGGAUUGAGCAUCA
# B9: chr11:21231013:21231014:-_ENSMUSG00000001891_ENSMUST00000060895|mus_hu|FALSE|FALSE (ssRNA)
# RNA: GGGAGUUCUACAGUCCGACGAUCAAAAAUAUACUCUUUGCCUUCUCCUAUAAAGGUAUCAAGCAAUCCAGAGUUGUAGAAACUGGCGUAAAUAUCACCAUGACCUGGAGGGUACCAAGCUUCUGUAUUUUCCCCUGAGUAAGACAACAGAGGAUUGAGCAUCA
# B10: chr19:8913615:8913616:-_ENSMUSG00000071658_ENSMUST00000096259|mus_hu|mus_mus_mus_hu_False|48_48 (ssRNA)
# RNA: GGGAGUUCUACAGUCCGACGAUCAGGGUACCAAAACCUUCUGCCUGAAAUGGGUGCCCCACCCAGUAGGGAGUUGCAGCUGAAAGUAUCCGUAGCAGAAGCAGUGACUAUACGAAAGGAGGCCCCUGGGGAGGGCCAGGCCAGCAACAGAGGAUUGAGCAUCA
# B11: chrX:98862621:98862622:+_ENSMUSG00000034160_ENSMUST00000044475|mus_hu|mus_mus_mus_hu_False|38_78 (ssRNA)
# RNA: GGGAGUUCUACAGUCCGACGAUCCUGCAUCUCCUUUAGAGUGUUUCCCAUAUUAGAAUAAGCAUCAGCAAAGGUAGGACUGAUUCGAAUAGCCUCCUUAUAGUGCAUCAGAGCUUCCUGCAGUUUUCCCUGCUGCUGCAGUACCAACAGAGGAUUGAGCAUCA
# B12: chr3:150285740:150285741:+_ENSG00000144895_ENST00000460851|hu_hu|motif|central (ssRNA)
# RNA: GGGAGUUCUACAGUCCGACGAUCAGCUUUUUUAUUCCACAGCAUUGUAACUUUAUCUGCCUUAAAGAAACUUUUAUUAGCGGAAGCUGCAUGAGGUCCAGCAAAGUUGGGGUACUGAUAUAAUCUAACAAAUGAAGGUGCACCCAACAGAGGAUUGAGCAUCA
# B13: chr2:198351390:198351391:-_ENSG00000144381_ENST00000345042|hu_hu|hu_hu_hu_mus_False|18_58 (ssRNA)
# RNA: GGGAGUUCUACAGUCCGACGAUCUCAUUCCCACCCUCCACAGAAAGGCUGCUUCUGAACUCUCAUGUGGUGACACAGCACUAAAAUCCUGAUGCUCACAGAACAGUAGAGAUGCCUCCUCAGUGAUAGUUGAAAGCAGGACACCAACAGAGGAUUGAGCAUCA
# B14: chr2:26245550:26245551:+_ENSMUSG00000026926_ENSMUST00000076431|mus_hu|FALSE|FALSE (ssRNA)
# RNA: GGGAGUUCUACAGUCCGACGAUCAUUAUCCAAUGUGGUUACUUUGGUUUCAAACUUUUCCUGUCCAUCAACUGUAGCAAAAACAGGCUUGGGUACUCCAGGUAAGGGAGAAGAGAGGGGGAUGUUGGGAUAGGCACCACCACUCAACAGAGGAUUGAGCAUCA
# B15: chr1:225611761:225611762:-_ENSG00000143815_ENST00000272163|hu_mus|hu_hu_hu_mus_True|38_78 (ssRNA)
# RNA: GGGAGUUCUACAGUCCGACGAUCCCAGGCCAUCGGCCUCUGACCACUUCACCCUCAGCAAAUUUCCUACUUGGCAUUUUCUAAAAUUAGUCUGGCCCAGGUUCCGGGGGAACUCCAGCCACUCCAGGACAGUCACCAGCAGCCCAACAGAGGAUUGAGCAUCA
# B16: 74640089_74641450_513_3pUTR_ENSG00000113161_ENST00000287936|human|control|control (ssRNA)
# RNA: GGGAGUUCUACAGUCCGACGAUCUGUGCUUGCUCUGGAAAGGUCAAUCAAAAGUAGGAAAAAGGGCAAAGCUUCAUUCAAGCCUGUCAAUUCUUUGUCUAAGAAGUGAAUGACAACUGUACUGAAUACAAAACUUGAGAAAAUCAACAGAGGAUUGAGCAUCA
# B17: chr5:100395146:100395147:-_ENSMUSG00000000568_ENSMUST00000112939|mus_mus|FALSE|FALSE (ssRNA)
# RNA: GGGAGUUCUACAGUCCGACGAUCAGAAAGGCCACCAACAAAAAUUUUUUUGACAGGCUCUUUUGUUUUCAUGGCUUUGGCCCUUUUAGGAUCAAUGACUUUCCCAUUCAAUUUAUGUUCUUUCUGAUCCAUGACCUUAUCUACCAACAGAGGAUUGAGCAUCA
# B18: chrX:72692514:72692515:+_ENSMUSG00000031201_ENSMUST00000033544|mus_hu|FALSE|FALSE (ssRNA)
# RNA: GGGAGUUCUACAGUCCGACGAUCUACUGCUGAUUCAAGGCACACUUUCCCGAUAGUGACAUGAGGUACAAUAUGGAUUGGGAUUUCGAUUCUCUCAUACCUUUCCUCUUCCUUCUGGCCCUCAAUGGAGAUGUGCUGGCUGGACAACAGAGGAUUGAGCAUCA
# B19: chr6:136599331:136599332:-_ENSG00000029363_ENST00000527536|hu_hu|FALSE|FALSE (ssRNA)
# RNA: GGGAGUUCUACAGUCCGACGAUCGGGAGCAUCAGAGCAAGAUGAACUCUGACUAGGUGGUGUAGCAAUAGGUGAAGGACUAUGGGGUGAUCUAGGACUAUUAUCAUAAGCUGAAAGGCCAGGCCAAAUAUCACCGGAUGUGGCCAACAGAGGAUUGAGCAUCA
# B20: chr12:100720429:100720430:+_ENSG00000136021_ENST00000360820|hu_hu|motif|central (ssRNA)
# RNA: GGGAGUUCUACAGUCCGACGAUCGAAGGGUAGGAUAUCAUCAAGUACAAACCACUUAUCCAAGUAUUCCAAAAUCUUUCCGGAGCACACUAAUGAAUUUACACGAACCGCAAGGGAAGAUGUUUGUAGACAAGCAUUUUUAAUCAACAGAGGAUUGAGCAUCA
# B21: chrX:98862621:98862622:+_ENSMUSG00000034160_ENSMUST00000044475|mus_hu|mus_mus_mus_hu_False|78_88 (ssRNA)
# RNA: B11 RNA with A54G, G102A
# B22: 64422500_64422620_5102_CDS_ENSG00000118482_ENST00000393387|human|control|control (ssRNA)
# RNA: GGGAGUUCUACAGUCCGACGAUCCUGCUGAACACACGAGUUUUUCUCUGCAGAACACAACUUUUCCUCUACAUUGAUUUGUUCUGUUAAGUGCUCCUUGUUGUGUGACAGGCCAGGCAGCAUGUGUUUUUCUCCAUUCCGGCACAACAGAGGAUUGAGCAUCA
# Biological target: T1, UNK ZnF1-3
# Test: nsRBNS (natural sequence RNA bind-n-seq); RBNS binding buffer (assumed for nsRBNS): 25 mM Tris pH 7.5, 150 mM KCl, 3 mM MgCl2, 0.01% Triton X-100, 500 ug/ml BSA, 20 U/ml SUPERase-In, 4 C; UNK is unkempt and MSI1 is Musashi-1; names of the RNAs are library labels; protein concentration not given here; high values mean tight binding
row,Binder,binding signal
1,B1,1.8 enrichment R
2,B2,1.36 enrichment R
3,B3,0.974 enrichment R
4,B4,0.554 enrichment R
5,B5,1.03 enrichment R
6,B6,0.864 enrichment R
7,B7,1.27 enrichment R
8,B8,0.551 enrichment R
9,B9,1.06 enrichment R
10,B10,1.45 enrichment R
11,B11,1.15 enrichment R
12,B12,1.91 enrichment R
13,B13,1.1 enrichment R
14,B14,1.73 enrichment R
15,B15,1.31 enrichment R
16,B16,1.36 enrichment R
17,B17,0.844 enrichment R
18,B18,0.846 enrichment R
19,B19,1.95 enrichment R
20,B20,1.24 enrichment R
21,B21,1.21 enrichment R
22,B22,0.434 enrichment R
